{
  "source": "paper PMC4336329",
  "about": "(PLoS ONE, 2015)",
  "note": "In all, about 310,000 compounds went through this assay and about 14,000 (4.5%) showed an effect of 50% or more. Effects have a minus sign here. The list shows a part of the results.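 Further: peak tail current of the secondary pulse compared with the same well before compound.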",
  "data": [
    {"target": "human ether-à-go-go-related gene (hERG) potassium channel (human, UniProt Q12809)", "sequence (Q12809 whole entry, looked up)": "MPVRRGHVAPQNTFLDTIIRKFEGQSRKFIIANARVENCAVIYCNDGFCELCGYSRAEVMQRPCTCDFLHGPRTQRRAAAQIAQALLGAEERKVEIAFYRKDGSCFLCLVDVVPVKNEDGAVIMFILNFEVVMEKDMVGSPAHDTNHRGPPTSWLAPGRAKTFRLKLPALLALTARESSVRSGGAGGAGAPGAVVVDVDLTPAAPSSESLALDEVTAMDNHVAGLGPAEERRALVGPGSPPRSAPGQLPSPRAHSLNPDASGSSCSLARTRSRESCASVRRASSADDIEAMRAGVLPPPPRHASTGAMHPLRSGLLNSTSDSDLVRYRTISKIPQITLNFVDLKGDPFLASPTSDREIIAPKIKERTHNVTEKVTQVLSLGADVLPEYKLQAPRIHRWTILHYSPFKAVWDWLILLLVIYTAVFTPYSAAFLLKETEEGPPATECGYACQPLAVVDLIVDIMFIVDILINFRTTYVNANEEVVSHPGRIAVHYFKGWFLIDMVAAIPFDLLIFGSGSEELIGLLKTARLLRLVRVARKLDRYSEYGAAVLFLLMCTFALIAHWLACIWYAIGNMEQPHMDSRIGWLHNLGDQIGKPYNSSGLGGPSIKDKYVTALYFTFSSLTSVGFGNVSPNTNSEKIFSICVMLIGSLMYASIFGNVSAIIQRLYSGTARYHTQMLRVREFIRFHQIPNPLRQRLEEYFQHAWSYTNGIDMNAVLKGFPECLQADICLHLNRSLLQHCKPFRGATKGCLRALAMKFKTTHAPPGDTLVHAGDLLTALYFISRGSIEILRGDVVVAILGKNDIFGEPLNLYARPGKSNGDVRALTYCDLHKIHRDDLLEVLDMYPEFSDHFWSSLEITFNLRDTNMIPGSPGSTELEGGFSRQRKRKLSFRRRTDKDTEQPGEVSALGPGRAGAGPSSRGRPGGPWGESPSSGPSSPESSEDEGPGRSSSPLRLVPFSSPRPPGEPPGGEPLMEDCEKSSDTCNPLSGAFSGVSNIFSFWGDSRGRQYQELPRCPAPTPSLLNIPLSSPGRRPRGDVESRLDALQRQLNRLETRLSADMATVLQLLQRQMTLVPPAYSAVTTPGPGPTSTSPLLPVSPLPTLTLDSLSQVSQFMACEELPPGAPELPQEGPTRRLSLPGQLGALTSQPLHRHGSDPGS", "assay": "primary screen, population patch clamp on CHO cells stably expressing hERG", "units": {"hERG current change (%, negative = inhibition) at 10uM": "%"}, "values": [
      {"smiles": "O=C(Nc1ccc(-c2nc3ccccc3[nH]2)cc1)c1ccc2c(c1)OCO2", "hERG current change (%, negative = inhibition) at 10uM": 6.85},
      {"smiles": "O=C(COC(=O)c1cnc(Cl)c(Cl)c1)NCc1cccs1", "hERG current change (%, negative = inhibition) at 10uM": 0.95},
      {"smiles": "COc1ccc(NC(=O)CSc2nc(N)c(NC(=O)c3ccccc3F)c(=O)[nH]2)cc1", "hERG current change (%, negative = inhibition) at 10uM": -10.6},
      {"smiles": "COc1cc(C(=O)N2C[C@H]3CC[C@H]2C3)ccc1OC1CCN(C(C)=O)CC1", "hERG current change (%, negative = inhibition) at 10uM": 11.5},
      {"smiles": "CCOc1ccc(NC(=O)CNS(=O)(=O)c2c(C)cc(C)cc2C)cc1", "hERG current change (%, negative = inhibition) at 10uM": 11.5},
      {"smiles": "NS(=O)(=O)c1ccc(NC(=S)Nc2ccc(S(=O)(=O)N3CCCC3)cc2)cc1", "hERG current change (%, negative = inhibition) at 10uM": 15.8},
      {"smiles": "CNc1cccc2c1C(=O)c1ccccc1C2=O", "hERG current change (%, negative = inhibition) at 10uM": -0.298},
      {"smiles": "CCOC(=O)c1ccc(S(=O)(=O)NCC[NH+]2CCOCC2)cc1.[Cl-]", "hERG current change (%, negative = inhibition) at 10uM": 39.5},
      {"smiles": "Cc1cc(Cl)ccc1OCC(=O)Nc1ccccc1N1CCOCC1", "hERG current change (%, negative = inhibition) at 10uM": -23.2},
      {"smiles": "O=C(COC(=O)C1=COCCO1)Nc1ccc2c(c1)OCO2", "hERG current change (%, negative = inhibition) at 10uM": 13.2},
      {"smiles": "Cc1cccc(NC(=S)N/N=C/c2ccc(Cl)c([N+](=O)[O-])c2)c1", "hERG current change (%, negative = inhibition) at 10uM": 3.28},
      {"smiles": "CN1CCN(c2ccc(S(=O)(=O)N3CCCCC3)cc2NC(=O)Cc2ccccc2F)CC1", "hERG current change (%, negative = inhibition) at 10uM": -31},
      {"smiles": "COC(=O)c1sc(NC(=O)c2ccc(OC)cc2OC)nc1C", "hERG current change (%, negative = inhibition) at 10uM": 10.7},
      {"smiles": "O=C(CSc1nnc(-c2ccncc2)o1)Nc1ccccc1Cl", "hERG current change (%, negative = inhibition) at 10uM": 12.3},
      {"smiles": "O=C(CSc1nncs1)Nc1ccc2[nH]c(=O)[nH]c2c1", "hERG current change (%, negative = inhibition) at 10uM": 3.88},
      {"smiles": "CCC1(C)SC(N)=NN1C(C)=O", "note": "(stereo not drawn)", "hERG current change (%, negative = inhibition) at 10uM": 13.1},
      {"smiles": "COc1ccc(Cc2nnc(SCC(=O)N(C)CC(=O)Nc3ccc(C)cc3)o2)cc1", "hERG current change (%, negative = inhibition) at 10uM": -22.2},
      {"smiles": "COc1ccc(S(=O)(=O)NNC(=O)C2COc3ccccc3O2)cc1[N+](=O)[O-]", "note": "(stereo not drawn)", "hERG current change (%, negative = inhibition) at 10uM": 12.6},
      {"smiles": "CCOC(=O)c1sc(NC(NC(=O)c2ccco2)(C(=O)OC)C(F)(F)F)nc1C", "note": "(stereo not drawn)", "hERG current change (%, negative = inhibition) at 10uM": 3.54},
      {"smiles": "CC(OC(=O)c1n[nH]c2ccccc12)C(=O)NC1CCCCC1C", "note": "(stereo not drawn)", "hERG current change (%, negative = inhibition) at 10uM": -0.049},
      {"smiles": "C=CCN(CC=C)CCOc1ccc(C)cc1[N+](=O)[O-].O=C(O)C(=O)O", "hERG current change (%, negative = inhibition) at 10uM": -47.3},
      {"smiles": "S=c1sc2c(N3CCN(Cc4ccccc4)CC3)ncnc2n1-c1ccccc1", "hERG current change (%, negative = inhibition) at 10uM": -8.67},
      {"smiles": "CCOc1ccc(C/C(N)=N/n2cnnc2)cc1", "hERG current change (%, negative = inhibition) at 10uM": -0.498},
      {"smiles": "O=C(c1cc(-c2ccc(Cl)cc2)n(-c2cc(Cl)ccc2Cl)n1)N1CCOCC1", "hERG current change (%, negative = inhibition) at 10uM": -68.9},
      {"smiles": "Cc1cccc(N(C(=O)c2csnn2)C(C(=O)NCc2ccccc2)c2ccc(C)o2)c1", "note": "(stereo not drawn)", "hERG current change (%, negative = inhibition) at 10uM": -54.6},
      {"smiles": "Cc1ccc2nc(NC(=O)COC(=O)c3ccccn3)sc2c1", "hERG current change (%, negative = inhibition) at 10uM": -42.5},
      {"smiles": "Cc1ccc(CSCC(=O)NCc2ccc3c(c2)OCO3)cc1", "hERG current change (%, negative = inhibition) at 10uM": -16.4},
      {"smiles": "Cc1ccc(Cl)c(OCC(=O)NCc2ccco2)c1", "hERG current change (%, negative = inhibition) at 10uM": 1.03},
      {"smiles": "CC(=O)c1cccc(NC(=O)c2oc(C)nc2C)c1", "hERG current change (%, negative = inhibition) at 10uM": -3.93},
      {"smiles": "Cc1csc2nc(CSc3nncn3-c3ccccc3)c(Br)n12", "hERG current change (%, negative = inhibition) at 10uM": -9.86},
      {"smiles": "COc1cccc(NC(=O)CCC2CCN(C(=O)c3ccc(C(C)=O)s3)CC2)c1", "hERG current change (%, negative = inhibition) at 10uM": -36.9},
      {"smiles": "COc1ccc(/C=C/C(=O)Nc2cc(S(=O)(=O)N3CCOCC3)ccc2N2CCCC2)cc1OC", "hERG current change (%, negative = inhibition) at 10uM": -40.3},
      {"smiles": "CN(C)CCNC(=O)c1ccc(-c2nn(C)c(=O)c3ccccc23)cc1", "hERG current change (%, negative = inhibition) at 10uM": -3.02},
      {"smiles": "OCC[C@@H]1C[C@H](O)[C@@H](O)[C@]2(CCCc3ccccc3O2)O1", "hERG current change (%, negative = inhibition) at 10uM": 17.1},
      {"smiles": "CC(C)(C)c1ccc(OCCCn2ccnc2)cc1", "hERG current change (%, negative = inhibition) at 10uM": -11.6},
      {"smiles": "N#CCCn1cc(C(=O)N2CCCCC2)c(-c2cccc([N+](=O)[O-])c2)n1", "hERG current change (%, negative = inhibition) at 10uM": 1.87},
      {"smiles": "O=C(O)C1CCN(c2ccc(S(=O)(=O)N3CCC(C(=O)O)CC3)cc2[N+](=O)[O-])CC1", "hERG current change (%, negative = inhibition) at 10uM": 20.5},
      {"smiles": "Cc1cn(S(=O)(=O)c2ccccc2[N+](=O)[O-])cn1", "hERG current change (%, negative = inhibition) at 10uM": 23.4},
      {"smiles": "COc1ccc(-n2nc(C(=O)NCC(=O)NC3CCCCCC3)c3ccccc3c2=O)c(OC)c1", "hERG current change (%, negative = inhibition) at 10uM": 11.1},
      {"smiles": "CCOCc1nnc(NC(=O)c2cccs2)s1", "hERG current change (%, negative = inhibition) at 10uM": -1.25},
      {"smiles": "CC(=O)Oc1cccc(-c2nc3ccccc3c(=O)o2)c1", "hERG current change (%, negative = inhibition) at 10uM": 9.58},
      {"smiles": "CSc1ccccc1NC(=O)Nc1cccc(F)c1", "hERG current change (%, negative = inhibition) at 10uM": 14.3},
      {"smiles": "O=C(CSc1ncc(-c2ccccc2)[nH]1)Nc1ccccc1", "hERG current change (%, negative = inhibition) at 10uM": -14.6},
      {"smiles": "CC(Sc1nc2ccccc2n1C)C(=O)NC(c1ccccc1)c1ccccc1", "note": "(stereo not drawn)", "hERG current change (%, negative = inhibition) at 10uM": -7.7},
      {"smiles": "O=C(/C=C/c1cccs1)N1CCN(c2ccc(F)cc2)CC1", "hERG current change (%, negative = inhibition) at 10uM": -11.1},
      {"smiles": "CCOC(=O)c1oc2cc(O)cc(C)c2c(=O)c1-c1cscn1", "hERG current change (%, negative = inhibition) at 10uM": -8.53},
      {"smiles": "CC(C)(CO)NC(=S)NCc1ccco1", "hERG current change (%, negative = inhibition) at 10uM": 6.39},
      {"smiles": "CC(=O)Nc1ccccc1C(=O)C(=O)Nc1cccc(C(=O)N2CC(C)CC(C)C2)c1", "note": "(stereo not drawn)", "hERG current change (%, negative = inhibition) at 10uM": -24},
      {"smiles": "COc1cc(CNc2ccc(C(=O)O)cc2)cc(Br)c1OCC(=O)NC(C)(C)C", "hERG current change (%, negative = inhibition) at 10uM": 6.14},
      {"smiles": "CCOC(=O)C1C(=O)NC(SC)=C(C#N)C1c1ccccc1F", "note": "(stereo not drawn)", "hERG current change (%, negative = inhibition) at 10uM": -5.64},
      {"smiles": "Cc1ccc(S(=O)(=O)NCC(=O)OC(C)C(=O)NC(=O)NC2CCCCC2)cc1C", "note": "(stereo not drawn)", "hERG current change (%, negative = inhibition) at 10uM": -3.12},
      {"smiles": "O=C(NNC(=O)c1cccs1)c1ccc([N+](=O)[O-])cc1", "hERG current change (%, negative = inhibition) at 10uM": 2.77},
      {"smiles": "O=C(COC(=O)c1ccc(S(=O)(=O)N2CCCC2)cc1)Nc1cccc(Br)c1", "hERG current change (%, negative = inhibition) at 10uM": -31.9},
      {"smiles": "Cl.N=C(N)c1ccccc1.O", "hERG current change (%, negative = inhibition) at 10uM": 19.9},
      {"smiles": "O=C(CSc1nnc(-c2ccco2)o1)Nc1c(F)cccc1F", "hERG current change (%, negative = inhibition) at 10uM": -1.95},
      {"smiles": "CC1CCCCN1S(=O)(=O)c1cn(C)c(=O)n(C)c1=O", "note": "(stereo not drawn)", "hERG current change (%, negative = inhibition) at 10uM": 0.369},
      {"smiles": "Cc1cc(C)c2[nH]c(=O)c(CN(Cc3ccccc3)C(=S)NCCCN(C)C)cc2c1", "hERG current change (%, negative = inhibition) at 10uM": -52.8}
    ]}
  ]
}
